# Measurements taken from the supplement of paper PMC3334620.
# The full ranking holds about 33,000 sequences; the median of “E-score (-0.5 to 0.5)” is about -0.032, and the highest 2% start at about 0.36. This is one part of the list.
# Molecular target: T1, Sko1 (UniProt Q02100)
# T1 sequence: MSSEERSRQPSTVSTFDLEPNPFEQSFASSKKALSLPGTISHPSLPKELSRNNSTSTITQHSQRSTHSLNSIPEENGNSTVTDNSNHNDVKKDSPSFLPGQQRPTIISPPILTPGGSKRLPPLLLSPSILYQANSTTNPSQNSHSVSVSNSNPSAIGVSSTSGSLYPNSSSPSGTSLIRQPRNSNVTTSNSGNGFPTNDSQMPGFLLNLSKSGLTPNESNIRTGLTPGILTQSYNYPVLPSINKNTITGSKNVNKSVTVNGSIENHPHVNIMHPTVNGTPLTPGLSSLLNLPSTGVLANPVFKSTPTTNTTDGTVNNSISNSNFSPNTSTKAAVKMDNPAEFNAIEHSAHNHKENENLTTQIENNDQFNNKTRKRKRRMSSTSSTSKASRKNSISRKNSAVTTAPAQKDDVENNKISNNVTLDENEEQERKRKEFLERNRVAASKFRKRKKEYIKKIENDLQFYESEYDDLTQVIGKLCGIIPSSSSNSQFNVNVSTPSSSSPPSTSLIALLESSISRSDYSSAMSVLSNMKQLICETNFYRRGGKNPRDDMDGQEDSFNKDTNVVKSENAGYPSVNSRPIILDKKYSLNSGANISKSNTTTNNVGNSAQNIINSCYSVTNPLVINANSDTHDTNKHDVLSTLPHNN
# Experiment: PBM E-score (8-mer binding enrichment) (E-score (-0.5 to 0.5)); higher = stronger / more preferred TF binding; most listed sequences are background and not binding sites
# Details: protein concentration: 200 nM; construct: GST-full length
# In short: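 PURExpress in vitro transcription/translation supplied GST-tagged yeast transcription factors, either full-length or DNA-binding domain. Applied at about 100-200 nM to universal all-10-mer Agilent arrays double-stranded by primer extension, the bound protein was detected with fluorescent anti-GST. E-scores, modified Wilcoxon-Mann-Whitney statistics, were given by the Universal PBM Analysis Suite to ungapped eight-base words pooled with their reverse complements after masliner normalisation.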
row,Sequence,PBM E-score
1,GGGATCAC,-0.136
2,CGGCCCTC,-0.261
3,AGTAACGG,-0.0156
4,CCGATAGC,-0.164
5,AGGAGTAT,0.00787
6,AACATGGA,0.00272
7,GATGTGCC,-0.141
8,GGGATAGA,-0.0751
9,GACCTGGC,-0.297
10,AAGAAGAC,0.00849
11,CACAGTGG,-0.209
12,GGACCGAC,-0.0912
13,CAGAATTC,0.0992
14,AACCCACA,-0.0796
15,CCCGATCA,-0.258
16,GGCGTACA,-0.0526
17,ATATTCAC,0.214
18,ACGACTTC,0.312
19,CCACGTCC,0.109
20,CACTTATC,0.11
21,CTGGGCAA,-0.145
22,CAATTTAA,0.144

row,Sequence,PBM E-score
1,ACTGGTAG,-0.0615
2,CAAGGGGC,-0.27
3,ACATCCGA,-0.126
4,TAATGACA,0.364
5,ACACAATG,0.246
6,AAGACGCG,-0.115
7,CCGCTACG,0.103
8,CGGTTCTC,-0.0999
9,GAGGCACC,-0.239
10,ACCTGTTG,0.0805
11,CGATCGCG,0.0985
12,CGTGTTGC,0.166
13,AGTAACTG,-0.00122
14,AGCAAACT,0.0407
15,ACGGACAA,0.0454
16,AAAATAGC,-0.113
17,ACTTTTTC,-0.0473
18,CAGCCTCA,-0.081
19,GACCTTAC,0.0378
20,CGTGAATA,0.303
21,CCCGGTGC,-0.236
22,CCCTATAC,-0.139

row,Sequence,PBM E-score
1,ACCCCAAG,-0.136
2,ATCGGACA,0.0445
3,CGGAAGCA,0.0556
4,ATTGGCGG,0.0243
5,GCGGCTGA,-0.128
6,TCCGCAAA,-0.17
7,CGGATTAG,-0.0423
8,AAGATCTA,-0.198
9,AACGTCCA,0.245
10,GTTATAGA,0.15
11,AAAAAATG,0.179
12,CGGCGGTA,-0.257
13,GGGAAGGA,-0.191
14,CCAACGGC,-0.201
15,ATCTAACA,0.0736
16,ATGGAGCG,-0.193
17,TAGTTCAA,0.0959
18,CCTATACG,0.214
19,AGTGGTCG,-0.0898
20,GGAGTCCC,-0.309
21,AACTCACG,0.313
22,TAGTGAGA,0.0523

row,Sequence,PBM E-score
1,GGGGCCGA,-0.306
2,TAGATCCA,-0.0741
3,CTGTGGCA,-0.176
4,AAGGTACT,0.00043
5,ACTATCAC,0.0962
6,ACGGGGGC,-0.222
7,CGTGATTC,0.125
8,TCGCCACA,0.0124
9,CATAGTAA,0.25
10,CCTTTGAA,-0.157
11,ACTCCCCT,-0.261
12,CGCCACAA,0.121
13,GATCCTAC,0.0127
14,CAAAGTGC,-6e-05
15,AGGTGTAA,-0.0269
16,ATCTCTGG,-0.0676
17,CGCTGGTC,-0.261
18,TGGTGACA,0.173
19,CCAGACAG,-0.243
20,ATCGCGAT,0.0367
